Consider ten compounds from PubChem BioAssay (NCI).

Molecules are shown by their SMILES.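 Assay format: 96-well plates, 48-hour exposure. Here, GI50 denotes the concentration required for 50% inhibition of growth. TGI: concentration producing complete growth inhibition.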 A value given as a limit tells only on which side of the number the result lay.

In the assay the test system is NCI-H322M lung. Kind of assay: inhibition of tumour cell growth, NCI panel, 48 h.
As to `O=C(Nc1ccccn1)c1cc2c(cc1Cl)Sc1nccn1S2(=O)=O`, the TGI was 61.9 µM. Same read-out and setting: the result for `Cc1cn(C2CC(/[N+]([O-])=N\Nc3ccc([N+](=O)[O-])cc3)C(CO)O2)c(=O)[nH]c1=O` (stereo unspecified) reads above 100 µM.

Regarding `O=C(/C=C/c1ccco1)c1cccc(Nc2nc(Nc3ccccc3)nc(Nc3ccccc3)n2)c1`, the GI50 was 0.782 µM and the TGI was above 100 µM. Compound `CCCCCC(=O)OC[n+]1ccc(-c2c(COC(=O)NC(C)C)c(COC(=O)NC(C)C)c3n2CCC3)cc1` gave a TGI above 100 µM. Still for that read-out and setting: the result for `ClC1(Cl)C2CCOC21n1cnc2ccccc21` (stereo unspecified) reads above 100 µM. For `CC1(C)OC(=O)C(c2ccsc2)C(=O)O1`, the TGI is above 100 µM. The compound `Cc1cc(NS(=O)(=O)c2ccc(N=Nc3c(Nc4ccccc4)nn(-c4ccc(S(=O)(=O)Nc5ccncn5)cc4)c3C)cc2)no1` returned a TGI above 100 µM. On the same count and under the same terms, the result for `COc1cc(C2C(C(=O)Nc3ccccc3C)=C(C)NC(C)=C2C(=O)Nc2ccccc2C)ccc1O` reads above 100 µM; that for `COc1cc(C2C(Cl)C(=O)N2NC(=O)c2ccccc2O)cc(OC)c1OC` (stereo unspecified), above 10 µM; that for `O=[N+]([O-])c1cc(C2ON=C(c3ccccc3)N2C23CC4CC(CC(C4)C2)C3)ccc1Cl` (stereo unspecified), above 100 µM.
